Reference: PubChem BioAssay AID1508642 (National Center for Advancing Translational Sciences (NCATS), 2021)
Out of some 43,000 compounds screened, about 200 (0.47%) were called active. Not shown: some 12% with an inconclusive outcome. Calls come from the whole dose curve; as a rule, active = well fitted cell-killing curve with a large enough effect; inconclusive = small, poorly fitted or top-dose-only effect, or effect the other way; inactive = flat fitted curve, though single readings scatter. This is one part of the list.

Assay: Cell viability qHTS assay in S16 Pmp22-F2sN cells; note: nearly all actives have a fitted effect of over 65% in size
Settings: S16 Pmp22-F2sN Schwann cells (luciferase reporters placed in the Pmp22 gene) viability, CellTiter-Glo, 24 h; series mostly up to 57.5 µM; activity change, negative = cytotoxicity: at the top concentration
How it was run: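 CellTiter-Glo counter-screen, qHTS, 1536-well. Cells: S16(c9) Pmp22-F2sN, 500-1,000/well in DMEM + 10% FBS. Cpd 23 nL pin transfer, 24 h, 37C/5% CO2. Read: luminescence, CCD imager.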
% is set by controls: 0 for no effect and ±100 for the full control effect; potency is the fitted concentration of half-maximal effect.

Row | Compound | activity change, negative = cytotoxicity | Potency
1 | CCc1cccc(-n2nnc(S(=O)(=O)c3ccc(OC)cc3)c2C)c1 | inactive: 1.53% | 
2 | Cc1ccc(Cn2cc(CCC(=O)NCC(C)c3ccccc3)c3ccccc32)cc1 (stereo not given) | inactive: -5.92% | 
3 | Cc1cccc(C)c1NC(=O)C1CCCN1S(=O)(=O)c1cccc2nsnc12 (stereo not given) | inactive: -3.28% | 
4 | COc1ccc(NC(=O)Cn2nnc(-c3nc(-c4ccncc4)no3)c2N)cc1OC | inactive: 6.2% | 
5 | Cc1c(NS(=O)(=O)c2ccc(Cl)cc2)c(=O)n(-c2ccccc2)n1C | inactive: 3.6% | 
6 | Cc1cc(C)nc(-n2nc(C)c3c2N(Cc2ccccc2C)C(=O)CC3c2ccc(Cl)cc2)n1 (stereo not given) | inactive: -8% | 
7 | COC(=O)c1ccccc1N(C)S(=O)(=O)c1cc2c3c(c1)CC(=O)N3CCC2 | inactive: -14.1% | 
8 | CCc1ccc(NC(=O)Cn2c(=O)nc(-c3ccccc3F)c3cc(Cl)ccc32)cc1 | inactive: 12.1% | 
9 | O=C(Nc1ccc(Oc2ccccc2)cc1)c1ccc(F)c(S(=O)(=O)N2CCN(c3ccccc3F)CC2)c1 | inactive: -14.6% | 
10 | CC(C)CCSc1nnc2n(-c3ccccc3)c(=O)c3c4c(sc3n12)CC(C)CC4 (stereo not given) | inactive: 1.91% | 
11 | CCOC(=O)c1c(C)[nH]c(C)c1S(=O)(=O)NCC(=O)NCc1cccc(Br)c1 | inactive: -2.21% | 
12 | O=C(Cn1cc(S(=O)(=O)Cc2cccc(Cl)c2)c2ccccc21)NCc1ccccc1Cl | inactive: 0.945% | 
13 | Cc1ccc2cc3cc(C(=O)N4CCN(c5ccccc5)CC4)sc3nc2c1 | inactive: 17.6% | 
14 | COc1cccc(NC(=O)/C(C#N)=C/c2ccc(-c3ccc(C)cc3)o2)c1 | inactive: 2.32% | 
15 | COc1cccc(C(=O)COC(=O)c2cc(-c3cccs3)nc3ccccc23)c1 | inactive: 0.595% | 
16 | Cc1cc(NS(=O)(=O)c2cn(C)c(C)n2)ccc1Br | inactive: -1.08% | 
17 | COc1ccc(C(=O)NCc2nc(-c3cccc(C)c3)no2)cc1OC | inactive: -2.44% | 
18 | Cc1nc(-c2ccc(S(=O)(=O)NCc3ccc(F)cc3)cc2)co1 | inactive: -0.0089% | 
19 | Cc1ccc(C)c(CN2C(=O)c3ccccc3S(=O)(=O)c3ccc(C(=O)NCCc4ccc(Cl)cc4)cc32)c1 | inactive: -0.717% | 
20 | CCc1ccccc1NC(=O)C1CCN(c2nc3ccccc3[nH]2)CC1 | inactive: 8.76% | 
21 | Cc1ccc(CCNc2nc3ccccc3c3nc(-c4cccnc4)nn23)cc1 | inactive: 9.04% | 
22 | COc1cccc(CNC(=O)CCc2c(C)nc3c4c(C)cc(C)nc4nn3c2C)c1 | inactive: -0.299% | 
23 | Cc1ccccc1OCC(=O)Nc1nnc(SCc2cc(=O)n3cc(Cl)ccc3n2)s1 | inactive: 15.9% | 
24 | Cc1c(Cl)cccc1NC(=O)c1cc(S(=O)(=O)N2CCCCC2)cn1C | inactive: 2.53% | 

Row | Compound | activity change, negative = cytotoxicity | Potency
25 | Cc1ccc2oc(=O)c3cc(C(=O)Nc4ccc(C)c(F)c4)sc3c2c1 | inactive: -4.73% | 
26 | CCc1nnc(NC(=O)CSc2nc3c([nH]c4ccccc43)c(=O)n2-c2ccc(F)cc2)s1 | inactive: 4.32% | 
27 | COc1ccccc1/C=C/c1onc(C)c1S(=O)(=O)N1CCC(C(=O)N2CCC(C)CC2)CC1 | inactive: -1.88% | 
28 | Cc1ccccc1NC(=O)CSc1nc2ccc(NC(=O)CCc3ccccc3)cc2s1 | inactive: 13.6% | 
29 | COC(=O)c1sccc1S(=O)(=O)N(CC(=O)Nc1ccccc1C)c1ccc(Cl)cc1 | inactive: -2.68% | 
30 | Cc1cccn2c(=O)cc(COc3ccc(NC(=O)C(C)C)cc3)nc12 | inactive: 14.7% | 
31 | Cc1ccc(-n2nc(C)c3c(C)cc(=O)n(CC(=O)Nc4cc(Cl)ccc4C)c32)cc1 | inactive: -5.43% | 
32 | Nc1ccc2oc(-c3ccccc3Br)nc2c1 | inactive: -1.83% | 
33 | COc1ccccc1NC(=O)Cn1cnc2ccc(S(=O)(=O)N3CCC(C)CC3)cc2c1=O | inactive: 5.78% | 
34 | COc1ccc2oc(=O)c(C(=O)NCCc3c(C)[nH]c4ccc(C)cc34)cc2c1 | inactive: 1.7% | 
35 | COc1ccc(N(CC(=O)N2CCN(c3ccccc3F)CC2)S(=O)(=O)c2c(C)noc2C)cc1 | inactive: -1.98% | 
36 | Cc1ccc(CNC(=O)c2cc3c(=O)oc4ccc(C)cc4c3s2)cc1 | inactive: 7.51% | 
37 | Cc1ccccc1NC(=O)C(Cc1ccccc1)N1Cc2ccccc2C1=O (stereo not given) | inactive: -8.88% | 
38 | O=C(Nc1noc2ccccc12)c1cccc(Cl)c1Cl | inactive: 0.0499% | 
39 | Cc1cccc(OCC(=O)Nc2ccc(S(=O)(=O)Nc3onc(C)c3C)cc2)c1C | inactive: 7.38% | 
40 | Cc1ccc(NC(=O)C2CCCN(C(=O)c3cnn(-c4ccccc4)c3-n3cccc3)C2)cc1 (stereo not given) | inactive: -1.48% | 
41 | COc1ccc(NC(=O)Cn2c(=O)n(Cc3ccco3)c(=O)c3sc4ccccc4c32)c(OC)c1 | inactive: 1.16% | 
42 | CCOC(=O)c1ccc(OC(=O)c2cn(-c3ccc(C)cc3)c(=O)c3ccccc23)cc1 | inactive: 0.21% | 
43 | Cc1cc(OCC(=O)N(Cc2ccc(N(C)C)cc2)Cc2ccco2)cc(C)c1Cl | inactive: -19.8% | 
44 | Cc1nn(-c2ccccc2)c(-n2cccc2)c1C(=O)N1CCN(c2ccccc2)CC1 | inactive: -6.52% | 
45 | COc1ccc(CNC(=O)c2cc3sccc3n2Cc2ccc(F)cc2)cc1 | inactive: -14.6% | 
46 | COCCCN1C(=O)c2[nH]nc(-c3cc(C)ccc3O)c2C1c1ccc(F)cc1 (stereo not given) | inactive: -8.35% | 
47 | Cc1ccccc1Nc1sc(C(=O)c2ccccc2)c(N)c1S(C)(=O)=O | inactive: 6.25% | 
48 | CCc1ccc(NC(=O)CN2C(=O)C3CCCN3c3ccc(S(=O)(=O)N(CC)CC)cc32)cc1 (stereo not given) | inactive: -0.877% | 

Row | Compound | activity change, negative = cytotoxicity | Potency
49 | Cn1cc(S(=O)(=O)N2CCCCCC2)cc1C(=O)N1CCN(c2ccccc2F)CC1 | inactive: 19.7% | 
50 | Cc1ccc(-c2nc3cc(NC(=O)Cc4ccc(Cl)cc4)ccc3o2)cc1 | inactive: 0.528% | 
51 | COc1ccc2c(Sc3ccc(C)cc3)c(C(=O)NCC(C)c3ccccc3)[nH]c2c1 (stereo not given) | inactive: -0.429% | 
52 | CCOC(=O)c1ccc(N2CC3=C(C2=O)C(c2ccc(OC)cc2)NC(=O)N3C)cc1 (stereo not given) | inactive: -10.6% | 
53 | CCc1ccc(NC(=O)Cn2c(=O)n(CCCC(=O)NCc3ccccc3Cl)c(=O)c3ccccc32)cc1 | inactive: 9.64% | 
54 | Cc1cc(NC(=O)CSc2nc(-c3cccc(F)c3)nc3c2c(=O)n(C)c(=O)n3C)no1 | inactive: 1.59% | 
55 | O=C(CCc1ccccc1)NCc1ccc2c(c1)CCN2C(=O)c1ccccc1 | inactive: -2.52% | 
56 | Nc1c(C(=O)Nc2ccc(C(F)(F)F)cc2)sc2nc(-c3cccs3)ccc12 | inactive: -1.14% | 
57 | COc1ccccc1-c1nnc(C2CCN(S(=O)(=O)c3ccc(CC(C)C)cc3)CC2)o1 | inactive: -19.7% | 
58 | COc1cccc(NC(=O)Cn2c(=O)n(-c3ccccc3)c(=O)c3ccc(C(=O)NCc4ccc5c(c4)OCO5)cc32)c1 | inactive: -13.2% | 
59 | COc1ccc(-n2c(SCC(=O)c3ccc(Cl)cc3)nc3c([nH]c4ccccc43)c2=O)cc1 | inactive: 12.8% | 
60 | COc1ccccc1N1CCN(c2ccc(=O)n(CC(=O)Nc3cc(F)ccc3C)n2)CC1 | inactive: 6.07% | 
61 | Cn1cc(C(=O)O)c(=O)c2cc(S(=O)(=O)N3CCOCC3)ccc21 |  | active: 14.1 µM
62 | CC(=O)N1CCc2c(sc3c2c(=O)n(CCc2ccccc2)c(=O)n3CC(=O)Nc2ccccc2F)C1 | inactive: -13.7% | 
63 | COc1ccccc1NC(=O)c1oc2ccccc2c1NC(=O)Cc1cccs1 | inactive: -1.21% | 
64 | COc1ccc(OCC(=O)Nc2ccc3c(c2)N(C)C(=O)c2ccccc2S3)cc1 | inactive: -0.439% | 
65 | COc1ccc(-c2cc(C(=O)Nc3c(C(=O)c4ccc(C)c(F)c4)oc4ccccc34)no2)cc1 | inactive: -9.99% | 
66 | Cc1ccc2nc(Cl)c3cc(C(=O)N4CCCC(C)C4)sc3c2c1 (stereo not given) | inactive: -14.1% | 
67 | CC(C)CN(CC(C)C)c1nnc(NC(=O)Nc2cccc(C(F)(F)F)c2)s1 | inactive: -19.9% | 
68 | CCOC(=O)c1cc(-c2ccc(C)cc2)n(CC(=O)Nc2cc(C)ccc2C)c1C | inactive: -2.56% | 
69 | COc1ccc(-c2cc(C(F)(F)F)n3nc(C(=O)Nc4cccc(Cl)c4Cl)cc3n2)cc1OC | inactive: 0.743% | 
70 | CCc1ccccc1NC(=O)c1cc(S(=O)(=O)N2CCC(C)CC2)cn1C | inactive: -2.57% | 
71 | COC(=O)Cn1c(SCCOc2ccccc2Cl)nc2ccccc21 | inactive: 10.3% | 
72 | O=C(CCS(=O)(=O)c1nc(-c2ccc3c(c2)OCO3)cc(C(F)(F)F)n1)Nc1ccccc1C(F)(F)F | inactive: 16.1% | 

Row | Compound | activity change, negative = cytotoxicity | Potency
73 | COc1ccc(C(C)=O)cc1CSc1nc(NCc2ccc(Cl)cc2)c2ccccc2n1 | inactive: 0.644% | 
74 | Cc1cccc(C)c1NC(=O)Cn1c(=O)n(CCC(=O)NCc2ccc3c(c2)OCO3)c(=O)c2sccc21 | inactive: -1.25% | 
75 | COc1ccc(-c2cc(C(F)(F)F)n3nc(C(=O)Nc4ccc(Cl)cc4C(F)(F)F)cc3n2)cc1OC | inactive: 1.81% | 
76 | Cc1ccc(NC(=O)C2CCCN(c3nc4ccccc4s3)C2)c(C)c1 (stereo not given) | inactive: -4.55% | 
77 | COc1ccc(C(=O)N2CCN(CCc3ccccn3)CC2)cc1 | inactive: 4.61% | 
78 | Cc1ccc(NC(=O)c2cnc(SCC(=O)N3CCCc4ccccc43)n(C)c2=O)cc1C | inactive: -7.89% | 
79 | Cc1oc(-c2ccccc2)nc1Cn1c(=O)cc(-c2ccccc2)c2c(C)nn(C)c21 | inactive: -4.13% | 
80 | Cc1ccc(-c2nn3c(C)nnc3c3ccccc23)cc1S(=O)(=O)NC(C)(C)CO | inactive: 1.86% | 
81 | Cc1ccccc1NC(=O)C1CCN(S(=O)(=O)c2cccc3nonc23)CC1 | inactive: 13.1% | 
82 | CCc1ccc(NC(=O)c2sc3nc(C)cc(C)c3c2NC(=O)c2ccccc2)cc1 | inactive: -1.26% | 
83 | COc1ccc(/C=C/C(=O)Nc2cccc(F)c2)cc1 | inactive: -2.67% | 
84 | CN(C)S(=O)(=O)c1ccc2c(c1)N(CC(=O)N1CCC(C(N)=O)CC1)CCS2 | inactive: 11.1% | 
85 | Cc1ccc(C)c(NC(=O)Cn2cc(S(=O)(=O)c3ccc(F)cc3)c(=O)c3cc(F)ccc32)c1 | inactive: 3.69% | 
86 | CCOc1ccc(NC(=O)c2cc(S(=O)(=O)N3CCC(C)CC3)cn2C)cc1 | inactive: 11.4% | 
87 | CC1CCCN(c2ncnc3c2nnn3C)C1 (stereo not given) | inactive: 0.426% | 
88 | O=C(Nc1ccc(C(F)(F)F)cc1)C1(c2cccs2)CCOCC1 | inactive: 12% | 
89 | CCCOC(=O)c1cccc(Nc2nc(C(=O)OCC)nc3ccccc23)c1 | inactive: -27.1% | 
90 | CCC1CN(C(=O)N2CCC(C(=O)NCc3ccccc3F)CC2)c2ccccc2O1 (stereo not given) | inactive: 0.365% | 
91 | Cc1cc(C)cc(NC(=O)c2cc(S(=O)(=O)N3CCCCC3)c[nH]2)c1 | inactive: -1.81% | 
92 | Cc1ccc(NC(=O)c2c(C)oc3ncnc(N4CCCCC4)c23)c(C)c1 | inactive: 14% | 
93 | CC(Oc1ccccc1F)C(=O)NCC1(N2CCOCC2)CCCCC1 (stereo not given) | inactive: -8.32% | 
94 | O=C(Nc1cc(-c2ccc(F)c(F)c2)no1)c1ccccc1F | inactive: -6.54% | 
95 | Cc1cccc(N2CCN(C(=O)C3CCCN(C(=O)c4cc5sccc5n4C)C3)CC2)c1C (stereo not given) | inactive: 10% | 
